Measurements: patent publication US20230218776A1, “ANTI-NTB-A ANTIBODIES AND RELATED COMPOSITIONS AND METHODS” (SEAGEN INC., priority 2015, published 2023)

Tests used:
WIL2-S cell line = experiment: ADCC, chromium-51 release with NK effector cells; type: cell-based; conditions: NK effector to target 10:1, 4 hours
Procedure: Antibody-Dependent Cellular Cytotoxicity (ADCC) Activity Assay: ADCC cytotoxic activity was measured by chromium-51 release in which effector natural killer (NK) cells kill (lyse) target cells via binding to the antibody or ADC on the target cells. WIL2-S cells were labeled with chromium-51, bound with antibody (0.1 ng/mL-10 μg/mL), and then incubated with NK cells at an effector to target ratio of 10:1 for 4 hours at 37° C., 5% CO2. Supernatant was removed to a filter plate and chromium-51 counts were measured with a TopCount (Perkin Elmer, Waltham, Mass.). Data was expressed as a percentage of maximum specific cell lysis determined with a positive control of 1% TritonX-100-treated cells (Sigma, St. Louis, Mo.).

MM.1R cells = experiment: ADC internalization, flow cytometry; type: cell-based
Procedure: Multiple myeloma cell lines (MM.1R or U-266) were bound with saturating concentrations of ADC (10 μg/mL), washed with media, and incubated at either 37° C. or 4° C. Time points were collected at which samples were stained with PE-labeled goat-anti-human antibody (Jackson ImmunoResearch, West Grove, Pa.) and fixed in 1% PFA/PBS. Once all time points were collected, the mean fluorescence intensity was measured on the FACs Calibur flow cytometer (BD BioSciences, San Jose, Calif.). The anti-NTB-A h20F3ec-1910(2) PBD dimer ADC rapidly internalized into MM.1R cells, with 80% of the ADC internalized within 4 hours at 37-C incubation. Only 20% of h20F3ec-1910(2) ADC was internalized at 4 hours when cells were kept at 4-C control condition.

B1: h20F3ec-1910(2) (conjugate)
heavy: QIQLVQSGSELKKPGASVKVSCKASGYTFTNYGMNWVRQAPGQDLKWMGWINTYSGEPRYADDFKGRFVFSLDKSVNTAYLQISSLKAEDTAVYYCARDYGRWYFDVWGQGTTVTVSS[sequence of human IgG1 constant region with changes omitted]
light: QIVLSQSPATLSLSPGERATMSCRASSSVSHMHWYQQKPGQAPRPWIYATSNLASGVPARFSGSGSGTDYTLTISSLEPEDFAVYYCQQWSSTPRTFGGGTKVEIKRTVAAPSVFIFPPSDEQLKSGTASVVCLLNNFYPREAKVQWKVDNALQSGNSQESVTEQDSKDSTYSLSSTLTLSKADYEKHKVYACEVTHQGLSSPVTKSFNRGEC
ADCC Maximum % Specific Cell Lysis (WIL2-S cell line): 16 ± 3.3% | ADC internalized (MM.1R cells; at 4 hours, cells kept at 4 C control condition): 20% | ADC internalized (MM.1R cells; within 4 hours at 37 C, 10 μg/mL ADC): 80%
